Hit rate of the full screen: of about 230,000 compounds, about 3,600 (1.6%) were called active. The shares of active, inactive and inconclusive entries below differ from those in the screen. Calls follow the shape of the dose curve; as a rule, active = well fitted inhibition curve with a large enough effect (not every such curve was filed as active); inconclusive = small, poorly fitted or top-dose-only effect, or another doubt; inactive = no such curve, though single readings can be large or run the other way. Potencies of inconclusive entries are doubtful fits and often do not repeat.
Each molecule was assayed against Lysine-specific demethylase 4E (Homo sapiens) (UniProt B2RXH2) (assay: qHTS Assay for Inhibitors of Human Jumonji Domain Containing 2E (JMJD2E)). Conditions: JMJD2E catalytic domain, FDH-coupled NADH fluorescence (FDH is formaldehyde dehydrogenase); series mostly up to 57.1 µM.
Sequence of UniProt B2RXH2 (B2RXH2 whole entry, looked up, the tested form may be a part): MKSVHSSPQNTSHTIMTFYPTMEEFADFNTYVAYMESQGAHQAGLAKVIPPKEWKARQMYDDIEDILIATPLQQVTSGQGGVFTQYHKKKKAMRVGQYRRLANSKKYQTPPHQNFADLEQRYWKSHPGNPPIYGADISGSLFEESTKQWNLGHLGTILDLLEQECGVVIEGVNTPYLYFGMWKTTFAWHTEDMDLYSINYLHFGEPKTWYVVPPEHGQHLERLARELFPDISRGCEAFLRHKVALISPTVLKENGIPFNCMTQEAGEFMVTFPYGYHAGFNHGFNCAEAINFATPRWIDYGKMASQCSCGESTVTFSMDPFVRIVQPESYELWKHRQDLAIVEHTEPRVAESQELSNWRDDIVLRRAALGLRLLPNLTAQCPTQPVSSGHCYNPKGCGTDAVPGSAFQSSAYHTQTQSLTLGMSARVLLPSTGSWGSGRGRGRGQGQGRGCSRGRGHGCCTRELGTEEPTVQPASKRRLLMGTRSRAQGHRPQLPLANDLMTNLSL
Also: nearly all actives have a fitted effect of over 50% in size.
Potency is read from the fitted curve at half-maximal effect; tags tell the direction and shape of the fitted curve.

SMILES	Potency
Cc1ccccc1Nc1nc(N)nc(CN2CCN(Cc3ccc4c(c3)OCO4)CC2)n1	inactive
COc1cc(C(=O)NC2CCN(Cc3nnnn3Cc3cccs3)CC2)cc(OC)c1OC	inactive
O=C(O)C1Sc2[nH]c(=O)sc2C2c3ccc(O)cc3OC(=O)C12 (stereo not drawn)	inconclusive: 20 µM [inhibitor, partial curve]
CC(c1nnnn1C1CCCCC1)N(Cc1ccccc1)Cc1cccnc1 (stereo not drawn)	inactive
CCSc1nc(N)c(C#N)c(-c2ccco2)c1C#N	inconclusive: 35.5 µM [inhibitor, single point]
COc1cc(-c2cc(=O)c3c(O)c(OC)c(OC)c(O)c3o2)ccc1O	active: 20 µM
O=C(c1ccc(=O)oc1)N1CCC(C(O)(c2ccccc2)c2ccccc2)CC1	inconclusive: 31.6 µM [inhibitor, partial curve]
O=C(O)CCCC(=O)Nc1ccc(C(=O)N2CCCCC2)cc1	inactive
COCCNc1cc(-c2ccccc2C(F)(F)F)ncn1	inconclusive: 39.8 µM [inhibitor, single point]
O=C(Nc1ccc(Cl)c(Cl)c1)Nc1nnc(-c2ccncc2)s1	inconclusive: 10 µM [inhibitor, partial curve]
S=C(NC1CCCCC1)N1CCc2ccccc2C1	inactive
CN1C(=O)C(O)(CC(=O)c2cccnc2)c2ccccc21 (stereo not drawn)	inactive
Nc1nnc(CC(=O)N/N=C/c2cccc([N+](=O)[O-])c2)s1	inactive
O=C(O)c1ccccc1C(=O)Nc1n[nH]c(=S)s1	active: 3.98 µM
CCCCC(=O)Nc1nc(C)c(-c2csc(Nc3cc(OC)ccc3OC)n2)s1	inconclusive: 31.6 µM [inhibitor, single point]
O=C(O)COn1c(-c2ccccc2)nc2ccc([N+](=O)[O-])cc21	inactive
CCC1Cc2c(nc(N)c3c(N)nc(N4CCCCC4)c(C#N)c23)O1 (stereo not drawn)	inconclusive: 14.1 µM [inhibitor, partial curve]
C#CCSc1nc(-c2cccs2)ccc1C#N	inconclusive: 28.2 µM [inhibitor, partial curve]
Cc1ccc(S(=O)(=O)N(C)c2ccc(C(=O)N3CCCCC3)cc2)cc1	inactive
CCN(CC)S(=O)(=O)c1ccc(Cl)c(NC(=O)COC(=O)/C=C/c2cc(OC)c(OC)c(OC)c2)c1	inconclusive: 35.5 µM [inhibitor, partial curve]
COc1ccc(N2C(=O)[C@@H]3[C@H](C2=O)[C@H](C(C)=O)N2c4ccccc4C=C[C@@H]32)cc1	inconclusive: 31.6 µM [inhibitor, single point]
O=C(N/N=C/c1ccc2c(c1)OCO2)/C(=C/c1ccc2c(c1)OCO2)NC(=O)c1ccccc1	inconclusive: 35.5 µM [inhibitor, single point]
S=c1[nH]nc(NCCc2ccccc2)s1	inconclusive: 10 µM [inhibitor, partial curve]
Cn1c(=O)n(C)c2cc(NS(=O)(=O)c3ccc(C(C)(C)C)cc3)ccc21	inactive
CC(C)C(=O)N(c1cc2sc(=O)oc2c2ccccc12)S(=O)(=O)c1cccs1	active: 10 µM

SMILES	Potency
CCC(=O)c1cc2c(cc1NC(=O)c1cccs1)OCCO2	inconclusive: 35.5 µM [inhibitor, single point]
COc1cnc(-c2ccccn2)nc1Oc1ccc(F)cc1F	inactive
CC(C)C(NS(=O)(=O)c1ccc2c3c(cccc13)C(=O)N2)C(=O)O (stereo not drawn)	inconclusive: 31.6 µM [inhibitor, partial curve]
O=C(Nc1cccc2ccccc12)N1CCN(Cc2ccc3c(c2)OCO3)CC1	inconclusive: 28.2 µM [inhibitor, partial curve]
Clc1ccccc1CSc1nnc(-c2cccnc2)n1Cc1ccco1	inconclusive: 39.8 µM [inhibitor, single point]
CCN(CC)CCn1c(-c2ccccc2)nc2c(NCCOC)nc(C)nc21	inconclusive: 28.2 µM [inhibitor, partial curve]
CNc1nnc(-c2ccco2)s1	inconclusive: 22.4 µM [inhibitor, partial curve, poor fit]
O=C(NCC1CCCO1)C1CC(c2ccccc2Cl)=NO1 (stereo not drawn)	inactive
N#CC(c1ccc(Cl)nn1)c1c(F)cccc1Cl (stereo not drawn)	inactive
CCn1c(=O)c2c(nc3n2CCCN3CCc2ccccc2)n(C)c1=O	inactive
NNC(=O)c1ccccc1-n1cccc1	inactive
c1ccc2[nH]c(SCc3cn4cccnc4n3)nc2c1	inconclusive: 39.8 µM [inhibitor, single point]
O=C(c1ccc(N2CCCCS2(=O)=O)cc1)N1CCN(c2ccc(N3CCOCC3)nn2)CC1	inconclusive: 28.2 µM [inhibitor, partial curve]
Oc1ccccc1/C=N/NC(=S)NC1CC2C=CC1C2 (stereo not drawn)	active: 25.1 µM
Cc1ccc(NC(=O)c2cc(-c3cccs3)nc3ccccc23)nc1	inconclusive: 31.6 µM [inhibitor, partial curve]
CCOC(=O)C1=C(C)NC(C)=C(C(=O)OCC)C1c1cccs1	inactive
CCOC(=O)c1c(C2CC2)csc1NC(=O)CSCc1c(C)noc1C	inconclusive: 31.6 µM [inhibitor, single point]
CCSc1nc2ccccc2n1S(=O)(=O)c1ccccc1	inactive
CC1=NN(c2ccc(C)c(C)c2)C(=O)/C1=C\C=C\c1ccc([N+](=O)[O-])o1	inactive
O=C(Cc1ccc(Cl)cc1)Nc1ccc(N2CCCC2)cc1	inactive
O=C(CNCc1cccs1)Nc1ccc(N2CCCCCC2)cc1	inconclusive: 31.6 µM [inhibitor, single point]
NC(=O)c1ccsc1NC(=O)CCS(=O)(=O)c1ccccc1	inconclusive: 39.8 µM [inhibitor, single point]
COc1ccc(CCn2c(=S)[nH]c3cc(C(=O)NCc4ccco4)ccc3c2=O)cc1OC	inactive
CCOCCCNC1=C(Cl)C(=O)c2ccccc2C1=O	inconclusive: 22.4 µM [inhibitor, single point]
CCOC(=O)c1nn(-c2ccccc2C)c2nc(CC(C)C)c(C#N)c(=O)n12	inconclusive: 35.5 µM [inhibitor, partial curve]

SMILES	Potency
O=C(Nc1ccccc1F)Nc1ccccc1F	inactive
Cc1ccc(C(=O)c2nc3c(n2O)CCCC3)cc1	inconclusive: 25.1 µM [inhibitor, single point]
COc1cccc(-c2cc(C(F)(F)F)nc(N3CCC(C)CC3)n2)c1	inconclusive: 39.8 µM [inhibitor, single point]
COc1ccc(C(CC(=O)N2CCCC2)c2c(OC)cc(OC)c3ccc(=O)oc23)cc1 (stereo not drawn)	inconclusive: 31.6 µM [inhibitor, partial curve]
COc1nc(N)c(S(=O)(=O)c2ccc(C)cc2)cc1C#N	inconclusive: 39.8 µM [inhibitor, single point]
COc1ccc(C2NC(=O)c3ccccc3N2)cc1OC (stereo not drawn)	inconclusive: 25.1 µM [inhibitor, partial curve]
Cc1nc2c(C(=O)NCc3ccccc3Cl)c[nH]n2c(=O)c1Cl	inconclusive: 39.8 µM [inhibitor, single point]
O=c1[nH]c(CSc2ncc(C(F)(F)F)cc2Cl)nc2ccccc12	inconclusive: 39.8 µM [inhibitor, single point]
Cc1ccc(NC(=O)c2cc3nc(C)cc(C)n3n2)cc1	inconclusive: 39.8 µM [inhibitor, single point]
CC(=O)NC1C(=O)N(Cc2ccccc2)c2ccc(Br)cc21 (stereo not drawn)	inactive
CCCCN(CC)C(=S)Nc1ccc2nc(N3CCN(C)CC3)cc(C)c2c1	inconclusive: 15.8 µM [inhibitor, partial curve]
CC(C)[C@@H]1NC(=O)c2cc([N+](=O)[O-])cc(I)c2NCCCC[C@@H](C(=O)NC(CC(=O)O)C(N)=O)NC(=O)[C@H](CO)NC1=O (stereo partly drawn)	inactive
CCNC(=O)C1CCCN(c2nc(C)cc(C)n2)C1 (stereo not drawn)	inconclusive: 28.2 µM [inhibitor, partial curve]
CCN1CCc2c(sc(NC(=S)NC(=O)c3ccco3)c2C(N)=O)C1	inconclusive: 35.5 µM [inhibitor, single point]
COc1ccc(C2CC(=O)N3CN(c4ccc(C)c(Cl)c4)CSC3=C2C#N)cc1OC (stereo not drawn)	active: 12.6 µM
CCc1ccc(NC(=O)c2cnc(N3CCN(c4ccccn4)CC3)c3ccccc23)cc1	inconclusive: 31.6 µM [inhibitor, partial curve]
CC(C)Cc1nnc(NC(=O)CCC(=O)N2CCN(c3ccccn3)CC2)s1	inconclusive: 31.6 µM [inhibitor, partial curve]
Cc1c(Cc2ccccc2)c(=O)oc2cc(OCc3nn[nH]n3)ccc12	inconclusive: 22.4 µM [inhibitor, partial curve]
C=CCNCc1cccn1-c1ccccc1	inconclusive: 39.8 µM [inhibitor, single point]
CCC(C)/C=C/C1=CC2=C(Cl)C(=O)C3(C)OC(=O)C(C(=O)C(C)C(C)O)C3C2=CO1 (stereo not drawn)	inconclusive: 28.2 µM [inhibitor, partial curve]
CCOc1ccc(-n2nc3c(SCCN4CCCC4)nnc(C)c3c2C)cc1	inconclusive: 31.6 µM [inhibitor, single point]
COc1ccc(CCNC(=O)COC(=O)/C=C/c2ccc(OC)c(OC)c2)cc1	inconclusive: 35.5 µM [inhibitor, single point]
O=C(c1ccco1)N1CCN(C(c2ccccc2F)c2nnnn2Cc2cccs2)CC1 (stereo not drawn)	inactive

Reference: PubChem BioAssay AID2147 (National Center for Advancing Translational Sciences (NCATS), 2009)
